The results in this text go back to article PMC4336329 (PLoS ONE, 2015).

SMILES strings stand for the structures. About 14,000 (4.5%) of roughly 310,000 compounds showed an effect of 50% or more. The effect is printed as a negative number. This is one part of the list.
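Note: peak tail current of the secondary pulse compared with the same well before compound.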

human ether-à-go-go-related gene (hERG) potassium channel, sequence (Q12809 whole entry, looked up): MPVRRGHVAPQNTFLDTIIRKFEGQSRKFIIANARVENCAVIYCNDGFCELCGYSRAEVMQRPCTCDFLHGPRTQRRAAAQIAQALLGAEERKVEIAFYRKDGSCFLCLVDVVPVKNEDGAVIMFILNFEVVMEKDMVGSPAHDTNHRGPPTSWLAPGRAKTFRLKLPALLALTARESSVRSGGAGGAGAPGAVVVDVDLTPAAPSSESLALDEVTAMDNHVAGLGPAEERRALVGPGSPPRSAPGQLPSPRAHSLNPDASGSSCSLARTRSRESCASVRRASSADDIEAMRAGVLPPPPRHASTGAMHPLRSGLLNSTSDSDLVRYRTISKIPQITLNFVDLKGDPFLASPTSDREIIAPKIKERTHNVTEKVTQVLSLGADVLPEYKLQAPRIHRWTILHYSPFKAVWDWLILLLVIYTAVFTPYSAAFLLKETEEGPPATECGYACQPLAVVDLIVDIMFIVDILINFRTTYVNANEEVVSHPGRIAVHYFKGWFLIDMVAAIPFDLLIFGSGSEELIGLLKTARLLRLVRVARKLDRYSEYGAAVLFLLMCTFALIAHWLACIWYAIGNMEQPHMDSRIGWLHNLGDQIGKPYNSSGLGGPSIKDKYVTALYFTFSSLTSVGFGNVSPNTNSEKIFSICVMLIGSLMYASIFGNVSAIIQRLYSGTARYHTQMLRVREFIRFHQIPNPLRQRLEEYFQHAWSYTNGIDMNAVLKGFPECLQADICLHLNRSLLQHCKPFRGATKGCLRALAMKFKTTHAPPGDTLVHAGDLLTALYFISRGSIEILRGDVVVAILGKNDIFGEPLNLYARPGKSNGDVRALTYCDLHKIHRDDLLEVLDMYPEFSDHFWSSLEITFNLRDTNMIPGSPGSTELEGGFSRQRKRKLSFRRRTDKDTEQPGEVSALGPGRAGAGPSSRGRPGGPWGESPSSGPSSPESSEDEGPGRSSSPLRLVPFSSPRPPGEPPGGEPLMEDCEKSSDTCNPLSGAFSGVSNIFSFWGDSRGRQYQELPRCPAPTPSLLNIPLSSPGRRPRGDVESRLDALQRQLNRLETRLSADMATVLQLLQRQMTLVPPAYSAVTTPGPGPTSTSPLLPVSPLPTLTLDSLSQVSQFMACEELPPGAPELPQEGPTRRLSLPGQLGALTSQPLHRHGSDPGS

The experiment has as its target human ether-à-go-go-related gene (hERG) potassium channel (human, UniProt Q12809). Description: primary screen, population patch clamp on CHO cells stably expressing hERG.
Turning to `COc1ccccc1CNC(=O)CSc1nc2ccccc2c(=O)n1CCCN1CCOCC1`, the “hERG current change (%, negative = inhibition) at 10uM” value is recorded as -56%.
For the compound `COc1ccc(NC(=O)c2cccnc2SC)cc1S(=O)(=O)N1CCCCC1`, the “hERG current change (%, negative = inhibition) at 10uM” value is given as -8.17%.
Regarding `CC(=O)Nc1c(C)nn(-c2ccc(C)c(C)c2)c1C`, the “hERG current change (%, negative = inhibition) at 10uM” value came to 2.17%.
As for `CCOC(=O)/C(N=Nc1c(Br)cc(Br)cc1Br)=C(\C)O`, the “hERG current change (%, negative = inhibition) at 10uM” value turned out to be 6.47%.
Under `CC12CCC(C(=O)NCc3ccccn3)(OC1=O)C2(C)C` (centres unmarked) stands 14.4%.
As for `O=S(=O)(Nc1cccnc1)c1ccccc1`, the “hERG current change (%, negative = inhibition) at 10uM” value worked out at 7.82%.
Regarding `CC(=O)n1nc2nc(C)cc(C)c2c1N`, the “hERG current change (%, negative = inhibition) at 10uM” value is recorded as 13.9%.
For `O=C(Cc1ccccc1)Oc1cccc(-n2cnnn2)c1`, the “hERG current change (%, negative = inhibition) at 10uM” value stood at 18.3%.
Turning to `CCN1CCN(c2nc(Nc3ccc(NC(C)=O)cc3)nc(Nc3ccc(NC(C)=O)cc3)n2)CC1`, the “hERG current change (%, negative = inhibition) at 10uM” value was -11.5%.
Under `O=C(Nc1ccc(N2CCN(C(=O)c3cccs3)CC2)cc1)c1ccccc1F` stands -0.953%.
Under `Cc1c(C(=O)C(=O)N2CCOCC2)c2ccccc2n1Cc1ccccc1` stands -12.5%; under `CCn1c(Cc2ccccc2)nnc1SCC(=O)Nc1nc(C)c(C)s1`, 9.3%; under `O=C(NCCc1ccccc1)C1CC(=O)N(C2CCCCCC2)C1` (centres unmarked), 3.33%.
Under `O=C(COc1ccc(Cl)cc1)N1CCN(Cc2ccccc2)CC1` stands -32.9%.
With `CC(=O)c1ccc(OCCCC(=O)OCC(=O)Nc2ccc3[nH]c(=O)[nH]c3c2)cc1`, the “hERG current change (%, negative = inhibition) at 10uM” value is on record as 8.89%.
Under `O=C1c2ccsc2SCCN1Cc1c(Cl)cccc1Cl` stands -41.9%; under `CN(C)S(=O)(=O)c1ccc(-c2csc(N/N=C/c3ccco3)n2)cc1`, 4.24%.
Under `c1ccc2oc(SCc3cn4ccccc4n3)nc2c1` stands -25.3%.
Under `CCN(CC)c1ccc(/C=C2\C(=O)NC(=S)N(C)C2=O)o1` stands -11.4%.
Take `COc1ccc2c(C(=O)CN3CCC(C)CC3)c[nH]c2c1`: the “hERG current change (%, negative = inhibition) at 10uM” value is on record as -20.6%.
For `CC(C)OCCCn1c(=NC(=O)c2ccncc2)c(C#N)cc2c(=O)n3ccccc3nc21`, the “hERG current change (%, negative = inhibition) at 10uM” value is listed as -74.2%.
Under `Cc1ccc(N(CC(=O)NC2CCCCC2)C(=O)Cn2nnc(-c3ccc(C)o3)n2)cc1` stands -35.3%; under `O=C(Cc1cc2ccccc2o1)NCc1ccc(F)cc1`, 6.51%.
Under `CCOC(=O)c1c(NC(=O)CSc2nnc(-c3cccnc3)o2)sc(C)c1C` stands 6.19%.
Under `CCOc1cc(/C=N/NC(=O)Cn2nc([N+](=O)[O-])cc2C)ccc1OCc1ccc(F)cc1` stands 13.3%; under `O=C(Cn1c(=O)c2cccn2c2ccccc21)NCCc1ccc(Cl)cc1`, 12.2%; under `CCc1ccc(NS(=O)(=O)c2ccc3[nH]cc(C(=O)N4CCc5ccccc54)c(=O)c3c2)cc1`, 2.85%.
With `CCN(c1ccccc1)S(=O)(=O)c1ccc(OC)c(NC(=O)c2cccs2)c1`, the “hERG current change (%, negative = inhibition) at 10uM” value is reported as -3.51%.
Under `COC(=O)c1cn(NC(=O)c2cccc(F)c2)c(=O)c2ccccc12` stands 26.7%; under `CC12CC3(C)CC(C)(C1)CC(C(=O)NCC(=O)O)(C2)C3`, 33.9%.
Under `Cc1ccc(S(=O)(=O)N2CCN(CCC#N)CC2)cc1` stands 10.7%; under `Oc1ccc(-c2nc3ccc4ccccc4c3c3c2CCC3)cc1O`, 3.49%.
Regarding `COC(=O)c1cccc(NC(=O)N2C[C@H]3C[C@@H](C2)c2cccc(=O)n2C3)c1`, the “hERG current change (%, negative = inhibition) at 10uM” value is recorded as 4.71%.
For `C=CCn1c(SCc2c(F)c(F)c(F)c(F)c2F)nc(O)cc1=O`, the “hERG current change (%, negative = inhibition) at 10uM” value worked out at 5.4%.
Under `CC(=O)O[C@@H]1[C@H]2CC[C@@H]3[C@]1(C[C@@H](OC(C)=O)[C@@]1(O)C([C@@H]4O[C@@H]4C1(C)C)[C@]3(C)O)C[C@@]2(C)O` (some centres unmarked) stands 3.96%; under `COc1ccc(/C(C)=N/NC(=S)NCCc2ccccc2)cc1`, 21.6%; under `CCN(CC)c1ccc(-n2c(O)c(C=C3N=c4ccccc4=N3)sc2=S)cc1`, -8.82%.
Take `Cc1nn(-c2ccc(F)cc2)c(Cl)c1C(=O)NCC1CCCO1` (centres unmarked): the “hERG current change (%, negative = inhibition) at 10uM” value is -26.3%.
Take `CCCCC1=CC2=CC(=O)C(C)(O)C(=O)C2=CO1` (centres unmarked): the “hERG current change (%, negative = inhibition) at 10uM” value is 20.3%.
Under `CCc1ccc(NC(=O)CSc2nnc(SCC(=O)Nc3ccc(CC)cc3)n2N)cc1` stands -3.06%; under `COC(=O)c1ccc(-c2ccc(CNCC(O)c3ccccc3)o2)cc1.Cl` (centres unmarked), 1.63%.
Under `Cc1cc(=O)oc(C)c1C(=O)NCc1ccco1` stands 12%; under `COc1ccc(/C=N/NC(=S)NC2CCS(=O)(=O)C2)cc1OC` (centres unmarked), 2.77%.
As to `CC(=O)NC(CCS(C)(=O)=O)C(=O)Nc1cccc(C(C)=O)c1` (centres unmarked), the “hERG current change (%, negative = inhibition) at 10uM” value is reported as 7.75%.
Under `Cc1cc(C)n2cc(CSc3ccc(Br)cc3)nc2n1` stands -63.8%; under `COc1ccccc1CC(NC(C)=O)C(=O)NC1CCN(C(=O)c2cccc(Cl)c2)CC1` (centres unmarked), 15.5%.
Under `O=C(N/N=C/c1ccc(O)cc1)c1csc2ccccc12` stands -26.5%.
Under `Cc1cc(C)cc(OCC(=O)OCC(=O)NC2CCCCCCC2)c1` stands -10%; under `COc1ccc(CNC(=O)c2c[nH]c3c(OC)cc(OC)cc3c2=O)cc1`, 13.3%; under `Fc1cc2ncn(Cc3ccccc3)c2cc1F`, -3.73%.
Take `COc1ccc(N2CC(C(=O)Nc3nnc(SCC(=O)N4CCOCC4)s3)CC2=O)cc1` (centres unmarked): the “hERG current change (%, negative = inhibition) at 10uM” value stood at 13.3%.
Under `CCCOP(=O)(OCCC)C1(Nc2ccc(C)cc2)CCCCC1` stands -5.07%; under `COc1ccc(S(=O)(=O)N(CC(=O)NN=C2CCN(C)CC2)c2ccc(C)cc2)cc1OC`, 10.1%; under `Cc1ccc(OCC(O)Cn2c(=N)n(CCN3CCCCC3)c3ccccc32)cc1.Cl` (centres unmarked), -72.9%.
For the compound `O=C(COc1ccc(S(=O)(=O)N2CCCC2)cc1)NCC1CCCO1` (centres unmarked), the “hERG current change (%, negative = inhibition) at 10uM” value is reported as 16.7%.
Under `O=C1CC(NNc2ccccc2)C(=O)N1c1cccc(Cl)c1` (centres unmarked) stands 17.8%.
